These results are taken from the antibiotic and cytotoxicity screens of Wong et al. (2023).

The other results are listed elsewhere or left out.

In experiment [1] the test system is HSkMC (human skeletal muscle cells). Briefly: cytotoxicity call (relative viability < 0.9). As to conditions: 10 µM.
Experiment [2] concerns HepG2. The experiment in a line: cytotoxicity call (relative viability < 0.9). The settings on record: 10 µM.
The test system of experiment [3] is S. aureus RN4220. Briefly: growth inhibition call (relative growth <= 0.2). The settings on record: 50 µM.

`C[C@@H]1CCCCO[C@@H](CN(C)S(=O)(=O)c2cn(C)cn2)[C@@H](C)CN([C@H](C)CO)C(=O)c2cc(NS(=O)(=O)c3ccccc3)ccc2O1`: the cytotoxicity call in experiment [1] and in experiment [2] was “inactive” each time. For the same compound, the growth inhibition call in experiment [3] is “inactive”.

Take `C[C@@H]1CN([C@H](C)CO)C(=O)c2cccc(NS(=O)(=O)c3ccc(F)cc3)c2O[C@H]1CN(C)Cc1ccncc1`: the cytotoxicity call in experiment [1] and in experiment [2] was “inactive” in each case. Moreover, the growth inhibition call in experiment [3] was “inactive”.

`O=c1cc(C(F)(F)F)[nH]c(=O)[nH]1`: the cytotoxicity call in experiment [1] and in experiment [2] was “inactive” each time. Further, the growth inhibition call in experiment [3] was “inactive”.

On to `C[C@@H]1CN([C@@H](C)CO)C(=O)c2c(c3ccccc3n2C)-c2ccccc2CO[C@H]1CN(C)Cc1ccc(F)cc1`, for which the cytotoxicity call in experiment [1] and in experiment [2] was “inactive” in each case. For the same compound, the growth inhibition call in experiment [3] was “inactive”.

In the case of `CCCCC1C(=O)N(c2ccccc2)N(c2ccc(O)cc2)C1=O` (stereo unspecified), the cytotoxicity call in experiment [1] was “inactive”. Also, in experiment [2], the cytotoxicity call is “active”. Moreover, the growth inhibition call in experiment [3] was “inactive”.

As for `CC(C)N1C[C@H](C)[C@@H](CN(C)Cc2ccc(Oc3ccccc3)cc2)Oc2c(NC(=O)c3ccncc3)cccc2C1=O`, the cytotoxicity call in experiment [1] and in experiment [2] was “inactive” each time. The growth inhibition call in experiment [3] was “inactive”.

Consider `Nc1ncnc2c1ncn2C1OC(CO)C(O)C1O` (stereo unspecified), for which the cytotoxicity call in experiment [1] and in experiment [2] was “inactive” in each case. In experiment [3], the growth inhibition call is “inactive”.

For the compound `C[C@H](CO)N1C[C@H](C)[C@H](CN(C)S(=O)(=O)c2cn(C)cn2)Oc2ncc(Br)cc2C1=O`, the cytotoxicity call in experiment [1] and in experiment [2] was “inactive” each time. In addition, the growth inhibition call in experiment [3] is “inactive”.

On to `C[C@@H]1CCCCO[C@H](CN(C)C(=O)Nc2ccc(F)cc2)[C@@H](C)CN([C@@H](C)CO)C(=O)c2cc(NC(=O)c3ccncc3)ccc2O1`, for which the cytotoxicity call in experiment [1] and in experiment [2] was “inactive” throughout. Also, in experiment [3], the growth inhibition call is “inactive”.

For the compound `C=CCN1C(=O)[C@]2(O[C@H](CCn3cc([C@H](O)c4ccccc4)nn3)[C@@H]([Si](C)(C)c3ccc(OC)cc3)[C@@H]2C)c2ccccc21`, the cytotoxicity call in experiment [1] and in experiment [2] was “inactive” in each case. In addition, the growth inhibition call in experiment [3] is “inactive”.

Consider `COc1[nH]sc(=NN)c1C#N`, for which the cytotoxicity call in experiment [1] and in experiment [2] was “inactive” throughout. Also, the growth inhibition call in experiment [3] is “inactive”.

As to `Cc1noc(C)c1NC(=O)N(C)C[C@H]1OCCCC[C@@H](C)Oc2ccc(NC(=O)Nc3cccc4ccccc34)cc2C(=O)N([C@@H](C)CO)C[C@H]1C`, the cytotoxicity call in experiment [1] and in experiment [2] was “inactive” in each case. For the same compound, in experiment [3], the growth inhibition call is “inactive”.

`C[C@H]1CN([C@@H](C)CO)C(=O)c2cc(NC(=O)C3CCCCC3)ccc2O[C@H]1CN(C)Cc1ccc(Oc2ccccc2)cc1`: the cytotoxicity call in experiment [1] and in experiment [2] was “inactive” in each case. In addition, the growth inhibition call in experiment [3] was “inactive”.

`C[C@H](CO)N1C[C@H](C)[C@H](CN(C)Cc2ccc(Cl)c(Cl)c2)Oc2c(NS(=O)(=O)c3ccccc3)cccc2C1=O`: the cytotoxicity call in experiment [1] and in experiment [2] was “inactive” in each case. For the same compound, the growth inhibition call in experiment [3] is “inactive”.

Turning to `O=C(CN1CCOCC1)N[C@@H]1CC[C@H](CCn2cc(C3CC3)nn2)O[C@H]1CO`, the cytotoxicity call in experiment [1] and in experiment [2] was “inactive” in each case. Besides, the growth inhibition call in experiment [3] was “inactive”.

Take `CCCc1nc(C(C)(C)O)c(C(=O)OCc2oc(=O)oc2C)n1Cc1ccc(-c2ccccc2-c2nn[nH]n2)cc1`: the cytotoxicity call in experiment [1] and in experiment [2] was “inactive” in each case. Moreover, the growth inhibition call in experiment [3] was “inactive”.

Turning to `CCCNC(=O)Nc1ccc2c(c1)C(=O)N(C)C[C@@H](OC)[C@@H](C)CN(C(=O)C1CCOCC1)[C@@H](C)CO2`, the cytotoxicity call in experiment [1] and in experiment [2] was “inactive” in each case. In addition, in experiment [3], the growth inhibition call was “inactive”.

Regarding `Cc1noc(C)c1NC(=O)Nc1ccc2c(c1)C(=O)N([C@@H](C)CO)C[C@@H](C)[C@@H](CN(C)Cc1ccc(C(=O)O)cc1)OCCCC[C@@H](C)O2`, the cytotoxicity call in experiment [1] and in experiment [2] was “inactive” in each case. Also, the growth inhibition call in experiment [3] is “inactive”.

In the case of `COc1ccc(S(=O)(=O)N(C)C[C@H]2Oc3ccc(NS(=O)(=O)c4ccc(C)cc4)cc3CC(=O)N([C@H](C)CO)C[C@H]2C)cc1`, the cytotoxicity call in experiment [1] and in experiment [2] was “inactive” in each case. In experiment [3], the growth inhibition call is “inactive”.

For `C[C@H]1CN([C@@H](C)CO)C(=O)Cc2cc(NC(=O)Nc3cccc4ccccc34)ccc2O[C@@H]1CN(C)S(=O)(=O)c1ccc(Cl)cc1`, the cytotoxicity call in experiment [1] and in experiment [2] was “inactive” in each case. In addition, the growth inhibition call in experiment [3] was “inactive”.

`CCCCn1c(SCC(N)=O)nc2c1c(=O)n(C)c(=O)n2C`: the cytotoxicity call in experiment [1] and in experiment [2] was “inactive” each time. Besides, the growth inhibition call in experiment [3] was “inactive”.

On to `Cc1cc(C(=O)Nc2cccc3c2O[C@@H](CN(C)S(=O)(=O)c2ccc(F)cc2)[C@H](C)CN([C@H](C)CO)C3=O)n(C)n1`, for which the cytotoxicity call in experiment [1] and in experiment [2] was “inactive” in each case. The growth inhibition call in experiment [3] is “inactive”.

`C[C@H]1CN([C@@H](C)CO)C(=O)c2cc(Br)cnc2O[C@H]1CN(C)S(=O)(=O)c1cccs1`: the cytotoxicity call in experiment [1] and in experiment [2] was “inactive” in each case. In addition, the growth inhibition call in experiment [3] is “inactive”.

With `COc1ccc(COC[C@]23Oc4ccccc4[C@H]([C@H]2CO[Si](C)(C)C(C)(C)C)N(C(=O)CC(C)=O)C(=O)N3C)cc1`, the cytotoxicity call in experiment [1] and in experiment [2] was “inactive” in each case. In experiment [3], the growth inhibition call was “inactive”.

Take `O=C(O)c1n[nH]c2c1CCCC2`: the cytotoxicity call in experiment [1] and in experiment [2] was “inactive” each time. Besides, the growth inhibition call in experiment [3] is “inactive”.

For `CCC1(C)CC(=O)NC1=O` (stereo unspecified), the cytotoxicity call in experiment [1] and in experiment [2] was “inactive” each time. Moreover, the growth inhibition call in experiment [3] is “inactive”.

On to `Cc1cnc(N2C[C@H]3COC[C@@H]3C2)nc1`, for which the cytotoxicity call in experiment [1] and in experiment [2] was “inactive” in each case. In addition, the growth inhibition call in experiment [3] was “inactive”.

For the compound `COc1ccc(S(=O)(=O)Nc2ccc3c(c2)C(=O)N([C@H](C)CO)C[C@H](C)[C@@H](CN(C)Cc2ccc(Oc4ccccc4)cc2)O3)cc1`, the cytotoxicity call in experiment [1] and in experiment [2] was “active” throughout. In addition, in experiment [3], the growth inhibition call is “inactive”.

Regarding `COC(CNC1=Nc2ncccc2OC1)OC`, the cytotoxicity call in experiment [1] and in experiment [2] was “inactive” in each case. In addition, the growth inhibition call in experiment [3] was “inactive”.

For the compound `Cc1noc(C)c1NC(=O)N(C)C[C@@H]1Oc2ncc(C#CC(C)(C)O)cc2C(=O)N([C@H](C)CO)C[C@@H]1C`, the cytotoxicity call in experiment [1] and in experiment [2] was “inactive” each time. Moreover, the growth inhibition call in experiment [3] was “inactive”.

Regarding `CC(C)NC(=O)N(C)C[C@H]1OCCCC[C@H](C)Oc2ccc(NC(=O)Nc3ccc(C(F)(F)F)cc3)cc2C(=O)N([C@H](C)CO)C[C@H]1C`, the cytotoxicity call in experiment [1] and in experiment [2] was “inactive” each time. The growth inhibition call in experiment [3] was “inactive”.

Consider `O=C(C[C@@H]1C=C[C@H](NC(=O)C2CCC2)[C@H](CO)O1)NCCCN1CCOCC1`, for which the cytotoxicity call in experiment [1] and in experiment [2] was “inactive” in each case. Further, in experiment [3], the growth inhibition call is “inactive”.

Take `COCC(=O)Nc1ccc2c(c1)[C@@H]1C[C@H](CC(=O)N3CCOCC3)O[C@H](CO)[C@@H]1O2`: the cytotoxicity call in experiment [1] and in experiment [2] was “inactive” in each case. Besides, the growth inhibition call in experiment [3] was “inactive”.

With `CCC(=O)N(C)C[C@H]1Oc2ncc(C#C[C@@H](C)O)cc2C(=O)N([C@H](C)CO)C[C@H]1C`, the cytotoxicity call in experiment [1] and in experiment [2] was “inactive” in each case. The growth inhibition call in experiment [3] was “inactive”.

As to `COc1ccc(NC(=O)N(C)C[C@@H]2Oc3ncc(C#CC(C)C)cc3C(=O)N([C@H](C)CO)C[C@@H]2C)cc1`, the cytotoxicity call in experiment [1] and in experiment [2] was “inactive” throughout. Besides, the growth inhibition call in experiment [3] is “inactive”.

In the case of `Cc1ccc(S(=O)(=O)NC(=O)NN2CCCCCC2)cc1`, the cytotoxicity call in experiment [1] and in experiment [2] was “inactive” throughout. Also, in experiment [3], the growth inhibition call is “inactive”.

Consider `C[C@H]1CN([C@@H](C)CO)S(=O)(=O)c2ccc(Br)cc2O[C@H]1CN(C)S(=O)(=O)c1ccccc1F`, for which the cytotoxicity call in experiment [1] and in experiment [2] was “inactive” each time. Moreover, the growth inhibition call in experiment [3] was “inactive”.

As to `C[C@H]1CN([C@@H](C)CO)C(=O)c2cccc(NC(=O)Nc3ccc4c(c3)OCO4)c2O[C@H]1CN(C)Cc1ccc(-c2ccccc2)cc1`, the cytotoxicity call in experiment [1] and in experiment [2] was “inactive” throughout. Besides, the growth inhibition call in experiment [3] was “inactive”.

Take `C[C@@H]1CN([C@@H](C)CO)C(=O)c2cc(NC(=O)CCN3CCOCC3)ccc2O[C@@H]1CN(C)Cc1ccc2c(c1)OCO2`: the cytotoxicity call in experiment [1] and in experiment [2] was “inactive” in each case. Besides, the growth inhibition call in experiment [3] is “inactive”.

With `O=C(C[C@H]1CC[C@@H]2[C@H](COC[C@@H](O)CN2S(=O)(=O)c2ccccc2)O1)NCc1ccc2c(c1)OCO2`, the cytotoxicity call in experiment [1] and in experiment [2] was “inactive” each time. Also, the growth inhibition call in experiment [3] is “inactive”.

Take `COc1ccc(NC(=O)Nc2ccc3c(c2)C(=O)N([C@@H](C)CO)C[C@@H](C)[C@H](CN(C)C(=O)C2CCCCC2)OCCCC[C@@H](C)O3)cc1`: the cytotoxicity call in experiment [1] and in experiment [2] was “inactive” each time. In addition, the growth inhibition call in experiment [3] is “inactive”.

For `O=C(O)c1nn(Cc2ccccc2)nc1C(=O)O`, the cytotoxicity call in experiment [1] is “inactive”. The cytotoxicity call in experiment [2] was “active”. In experiment [3], the growth inhibition call is “inactive”.

Regarding `Cc1ccc(S(=O)(=O)Nc2ccc3c(c2)C(=O)N([C@@H](C)CO)C[C@@H](C)[C@@H](CN(C)Cc2ccc(C(F)(F)F)cc2)OCCCC[C@@H](C)O3)cc1`, the cytotoxicity call in experiment [1] and in experiment [2] was “active” each time. The growth inhibition call in experiment [3] is “inactive”.

Regarding `CC(C)NC(=O)N(C)C[C@@H]1Oc2ncc(-c3ccc(C(=O)N(C)C)cc3)cc2C(=O)N([C@H](C)CO)C[C@@H]1C`, the cytotoxicity call in experiment [1] and in experiment [2] was “inactive” each time. In addition, the growth inhibition call in experiment [3] is “inactive”.

Take `C[C@@H]1CN([C@H](C)CO)C(=O)c2cccc(NC(=O)CCCCCC(=O)Nc3ccccc3N)c2O[C@H]1CN(C)Cc1ccc(Cl)c(Cl)c1`: the cytotoxicity call in experiment [1] and in experiment [2] was “inactive” each time. Besides, the growth inhibition call in experiment [3] was “inactive”.

As for `COc1ccc(NC(=O)N(C)C[C@H]2Oc3ccc(NS(C)(=O)=O)cc3C(=O)N([C@H](C)CO)C[C@H]2C)cc1`, the cytotoxicity call in experiment [1] and in experiment [2] was “inactive” in each case. The growth inhibition call in experiment [3] is “inactive”.

Consider `COCC#Cc1cnc2c(c1)C(=O)N([C@H](C)CO)C[C@H](C)[C@H](CN(C)C(=O)Nc1ccccc1OC)O2`, for which the cytotoxicity call in experiment [1] and in experiment [2] was “inactive” each time. In addition, the growth inhibition call in experiment [3] was “inactive”.
